# Test results: PubChem BioAssay (NCI)
# More than one record can exist for a structure, and the calls need not agree.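 Treatment: one concentration, 48 hours, 96-well format. Scoring: percent growth, with anything below 10 considered active.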 A number of entries come with more than one value. Only these are listed. There may be further records. This drug was run again and again over the years, at the concentration stated with the values; one value stands for one run. Brackets with × say how often a value occurs here.
# What was measured:
# Experiment in all cases: NCI-60 one-dose screen, 48 h (100 = growth as untreated, 0 = no growth, -100 = all killed)
# M14 melanoma = conditions: 2.5 mM; runs of 2000
# HCT-15 colon = conditions: 2.5 mM
# HT29 colon = conditions: 2.5 mM
smiles,measurement,setting,value
O=c1[nH]cc(F)c(=O)[nH]1,growth,M14 melanoma,"active: 1.65, 1.9, 0.581, -49.2%"
same,growth,HCT-15 colon; runs of 1991,"active: 8.57, -13.9, -9.73, 5.33, 9.02, -7.72, 7.4, 5.32, -2.15, -40.2% and inactive: 15.4, 18.9, 10.8, 12 (2×), 99.3, 11%"
same,growth,HCT-15 colon; runs of 1992,"active: 6.07, 4.37, 4.95, 7.05, 7.36, 1.75, 9.75, 5.99, 8.69, -4.85, -77, -16.6, -14.7, 3.3, 0.891, 9.84, -40, 5.43, 3.79, 4.23, 9.77, 4.19, -11.7, -4.4, 6.23, -0.552, 4.45, -13.5, -3.36, 2.03, 9.95, -45.9, 8.43, -36.2, -7.91, 5.98, -24.7, -4.84, 4.87, 1.63, 6.72, -25.8, -10.9, 5.36, 1.65, 4.61, -13.8, -7.03, 5.77, 6.7, 4.66, 3.81, -11, 2.12, -28.5, -33.4, 0.0454, -13, 1.05, 6.06, 6.48, 6.55, 6.74, 5.86, 2.46, -27.6, 0.176, 1.86, -32.9, -42.9, -22.5, 9.28, 7.33, 7.89, 0.488, 6.49, -23.4, -1.78, -2.75, 2.09, 7.64, 7.22, 1.47, 0.997, 1.61% and inactive: 13.3, 12.3, 11.4 (2×), 34, 41.6, 36.7, 17.6, 18.2, 22.2, 24.8, 25.2, 17.8, 13.8, 14.5, 15.8, 18.3, 23.3, 20, 14.2, 16.8, 18.5, 16.5, 11 (2×), 10.1, 20.7, 18.4, 14.6, 10.7, 12.2, 34.4, 10.4, 18.1, 14.4%"
same,growth,HCT-15 colon; runs of 1993,"inactive: 11.8 (3×), 14.5, 10.1, 20.6, 11.4, 30 (2×), 11.5, 13.7, 11, 17.9, 24.1, 14.6, 13.2, 13.9, 11.7, 12.4, 20, 16.3, 15, 18.1, 27.1, 19.8, 17.2, 11.1, 20.3, 11.6, 13.1, 18.3% and active: 9.06, -0.851, 6.06, 6.37, 9.11, 5.88, 6.4, 9.42 (2×), 8.23, 8.84, 8.61, -2.24, 9.61, 5.58, 1.21, 1.91, -2.41%"
same,growth,HCT-15 colon; runs of 1994,"inactive: 20.9, 14 (2×), 18.1, 12.5, 15.6, 12.8, 23.3, 12.9, 20.3, 17.7, 11.5, 27.8, 21.7, 12.2, 15.1, 17.6, 13, 23.2, 12.7, 14.1% and active: 2.56, 8.74, 5.57, 1.06, 0.63, -12.2, 2.01, -21.7, -12.6, -0.316, 5.66, 4.35, 7.74%"
same,growth,HCT-15 colon; runs of 1995,"inactive: 14.6, 19.2, 16.8, 15, 18, 16.3, 39.6, 17.9, 19.3, 12.8, 11, 29, 13.4, 22.4, 13.5% and active: 7.05, 6.89, 3.41, 9.79, 5.37, 2.33, 1.76, 7.56, -20, -24.3, 0.211, 5.62, 7.35, -5.93, 8.41, 6.66, -5.82, 2, 3.49, 5.73, 1.87, -17.6%"
same,growth,HCT-15 colon; runs of 1996,"inactive: 12.9, 23.3 (2×), 14.6, 13.4, 15.9, 20.7, 17.4, 22.7, 14.4 (2×), 15.4, 12.7, 10.1 (2×), 10.9, 15.7, 13.6, 15.2, 18.8, 13.5, 24.5, 12.2, 14.5, 10, 11.7, 14.1% and active: 3.29, -10.3, 7.15, 7.07, 7.81, 9.92, -1.03, -62, 7.51, 9.91, 5.47, 7.19, 3.05, 6.53, -13.9, 3.38, 4.36, 9.26, 6.77, 6.14, 4.66, 5.19, 5.78, 1.15, 5.09, 1.67, 3.13, 7.78, 6.06, 5.65, 7.59, -4.52%"
same,growth,HCT-15 colon; runs of 1997,"inactive: 14.1, 10.4, 12.6, 13.6, 11.4, 15.8, 12.9, 16.7, 17.9, 14.8, 22.2, 13.8, 24.1, 11.2, 13.2, 18.4, 12.4, 21.1, 13.7% and active: 4.78, -19.4, 7.23, 5.66, 1.96, -19.1, -32.6, -20, 8.15, -24.1, 7.42, 2.06, 7.92, 6.53, 9.71, 3.65, 8.97, -18.5, 6.76, 7.13, 3.69, 5.22, 8.04, 8.29, 3.98, 1.71, 3.36%"
same,growth,HCT-15 colon; runs of 1998,"inactive: 11.2 (2×), 20.2, 15.8, 13 (2×), 25.9, 13.1, 13.2 (2×), 14, 15.6, 14.2, 17.9, 17.7, 22.4, 11.7, 12, 18.8, 13.5, 17.2% and active: 2.68, -2.48, -16.8, 5.2, 6.09, 7.36%"
same,growth,HCT-15 colon; runs of 1999,"inactive: 27.1%, 11.8%, 10.7% and active: 9.08, -2.67, -13.8, -100, -26.9, 0.802, -79.2, 3.83, 3.38, -67.2, -13.3, -90.1, 0.221, -7.5, 2.05%"
same,growth,HCT-15 colon; runs of 2000,"active: -24.6, 2.32, 0.88, 0.127%"
same,growth,HT29 colon; runs of 1991,"inactive: 110, 11.8, 15.4 (2×), 16.6, 11.5, 16.7, 13.7, 12.7, 11.2% and active: 9.77, 5.99, -44.8, -2.05, 8.47, 3.84, 4.17, 5.58, 2.85, 7.29%"
same,growth,HT29 colon; runs of 1992,"inactive: 12.2, 10.2, 16.2, 13.2, 20.7, 17.2, 14.9, 23.6, 13.5 (2×), 22.3, 13.9 (3×), 39.2, 16.3 (2×), 15.8 (3×), 14.8 (3×), 15.2, 15.7, 18.8, 19.5, 10.4 (2×), 11.8 (2×), 21.2, 12.6, 25.7, 19.8, 13, 14.6, 86.6, 19.4 (2×), 14.2, 18.5, 26.7, 17 (2×), 17.6, 12.5 (2×), 13.8, 20, 10.8, 20.4, 12.7 (2×), 11.5, 16.4, 21.4, 11.7, 15.4, 11.3, 10, 20.9, 17.9, 11.6, 23.4, 16.7, 12.3, 31.9, 15.3% and active: 6.59, 2.47 (2×), 5.25, 7.81, 6.96, 5.79, 9.87, 7.24, 7.32, -16.4, -8.07, 8.64, 9.07, 8.17, 8.71, 6.63, 9.44, 8.41, 8.01, 9.81, -2.54, 6.26, 8.4, 1.42, -15.8, 3.58, 7.7, -1.47, 7.84, 5.86, 5.46, 8.67, 8.44, 4.22, 9.86, 7.43, 6.85, 4.98, 9.78, 7.53, 5.22, 0.145, 2.75, 8.3, 8.51, 6.82, 6.87, 8.45, 8.63, 7.8, 6.88%"
same,growth,HT29 colon; runs of 1993,"active: 5.65 (2×), 8.66, -20.1, 7.65, 0.342, 7.29, 1.71, 9.6, 5.97, 9.18, 8.6, -3.64, 9.53, 9.13, 7.49, 8.99, 8.37% and inactive: 16.8, 12.4, 18.6, 20.9 (2×), 11.5, 13.2 (2×), 13, 25.7, 15.1 (2×), 14.9 (2×), 10.5, 18.1, 13.7, 20.7, 15.3, 15.8, 14.5, 16.4, 92.8, 25, 77.2, 25.1, 11.1, 21.2, 14%"
same,growth,HT29 colon; runs of 1994,"inactive: 14.1 (3×), 16.5, 17.7, 13.2, 15.4, 11.3, 16.4, 19.6, 15.1, 19.9, 15.8, 19, 18.9, 15.6, 17.1, 14.7, 16.7% (2×) and active: 2.02, 5.54, 4.98, 7.87, -13.5, 7.04, 6.51, 8.99, 9.16, 9.88, 8.64%"
